Sequences with one replicate were seen in a single cluster, so their values are uncertain.
System: ATP
Experiment: switch fluorescence ratio, 500 uM ATP over buffer (Cy3 cluster intensity, sum of 5 cycles each) (fold (ratio)); higher = stronger signal-on switching upon ATP binding; sequences stand for … in TCGTCGGCAGCGTCAGATGTGTATAAGAGACAGTTTTTTTTTTTTTTTTTTTTTTTTT…TC
Details: aptamer strand: ATP DNA aptamer (quencher-CACCTGGGGGAGTATTGCGGAGGAAGG + anchor), 100 nM annealed; ATP concentration: 500 uM; one replicate
Procedure, shortened: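 Five buffer/ATP imaging cycles were run on Cy3-labelled switching-strand clusters on a modified Illumina MiSeq flow-cell, with NaOH stripping and re-annealing between cycles. In each cycle, clusters annealed to 100 nM quencher-labelled ATP aptamer were imaged in selection buffer, then after 15 min with 500 uM ATP at 22 °C. Per cluster, the fluorescence ratio is summed target-cycle over summed buffer-cycle Cy3 intensity, averaged per switch-domain sequence. Only clusters within 100-1000 RFU were kept.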
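Further: ATP exposure 15 min at 22 °C before imaging.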

| Sequence | switch fluorescence ratio |
| --- | --- |
| CAGTCATATC | 1.05 |
| TCCAGTCTGT | 0.983 |
| CAGTATATGT | 0.949 |
| GTGTGCGCAG | 0.984 |
| CCTGATGTGT | 1.05 |
| ACCTTTCTGC | 1.7 |
| GACAACTCTG | 1 |
| TGTAATAGGC | 1.04 |
| ACGTGCCGTG | 1 |
| TGCCATGGCA | 0.945 |
| AGACAGTTAT | 1.01 |
| CTGATACCAA | 1.08 |
| GGCAACAAAA | 0.995 |
| CGGAGTGGTG | 0.962 |
| ACGGCTTGG | 0.952 |
| AACACGGTTT | 0.978 |
| CTCGGTTTGA | 1.02 |
| GTGGTGTA | 1.01 |
| TTTTCGGG | 1.06 |
| CGACCTAGGG | 0.977 |
| TAAACACGCA | 1.22 |
| AATATCGCAG | 1.01 |
| AACAGGTTC | 1.02 |
| TTCTAACCTC | 1.04 |
| GAATTGCAGT | 0.944 |
| GGTCTAAGTC | 1.05 |

| Sequence | switch fluorescence ratio |
| --- | --- |
| ACGGCAGTCT | 1.03 |
| TATGAGGTCA | 0.994 |
| GAATGCCGAT | 0.996 |
| ACGCCAGTGC | 1.19 |
| GACGTTGAAG | 0.969 |
| CGGTTAGATT | 0.984 |
| TTAGGCGC | 0.964 |
| ACTGAAGTCG | 1.05 |
| ACTTTTTTTG | 1.02 |
| AAATGGGTAT | 0.989 |
| AGCCGGTCAT | 0.98 |
| CTTTCGTTAG | 0.978 |
| GCGGCTAATG | 0.967 |
| CCTATTGTTG | 0.959 |
| AAACGGTGT | 0.999 |
| CAACATGTCT | 0.968 |
| CTTTTAGCCG | 0.982 |
| AATTGCGAGA | 1.03 |
| CGTTGAGGTC | 1.06 |
| ATGCGGTGAC | 0.993 |
| ATAGCAGTCC | 1.28 |
| AATACTAGAA | 1.01 |
| TAAAAGGTAA | 1 |
| ACTCGAGGGT | 1.17 |
| TCCTGGACTT | 1.21 |
| AACGGACCAC | 1.25 |

| Sequence | switch fluorescence ratio |
| --- | --- |
| AAGTAGACTA | 1.01 |
| GATTTATTA | 0.985 |
| CCAGTAGCA | 1.39 |
| GGCGTGAGGT | 0.969 |
| CCATTATGGC | 0.955 |
| GTATCGATAT | 1.01 |
| ATGCTTATGC | 0.992 |
| AGACTAGCGC | 0.965 |
| AATGTCTTTC | 1.06 |
| TACTACCATC | 1.15 |
| ATACATGCCA | 1.03 |
| TTTTACATGG | 0.956 |
| CCCGGTTCGT | 1.02 |
| CATGTTGCCG | 1.01 |
| AAATTTTTT | 0.989 |
| GATACGTACC | 1.77 |
| GGATCAGGTC | 0.99 |
| TGAGCTTATA | 1.07 |
| ATGAGGCCAG | 0.998 |
| GGCTTCAGCC | 0.979 |
| CGTATCATG | 1.05 |
| TATAAGGCCT | 1.03 |
| TAAACGAATC | 0.984 |
| ACGAGGATAC | 1.33 |
| ACCTATTCAG | 1.05 |

— the supplement of paper PMC10126150
